{"source": "patent US20050180956A1", "about": "“SSAO enzyme substrates for vasorelaxation, and methods of use thereof” (priority 2004, published 2005)", "key": {"rat thoracic aorta (TA)": {"tested_on": "rat thoracic aorta (TA)", "settings": "10 min, 1 mmol/L, mean ± SE"}, "[1]": {"tested_on": "isolated human blood vessels", "settings": "methylamine 1-1,000 μM"}, "[2]": {"tested_on": "isolated human blood vessels", "experiment": "tissue or blood", "settings": "read-out: apparent EC50s in all three human vessels, approximate range"}, "[3]": {"settings": "NE-precontracted (1 μM) TA of 1-yr old Wistar rats"}, "[4]": {"settings": "NE-precontracted (1 μM) TA of 18-20 week old Sprague-Dawley rats"}}, "note": "Read-outs that look alike come from different tables or passages of the source.", "data": [{"compound": "CN", "note": "[methylamine]", "values": [{"measurement": "% Response, contraction (C), rat Old W thoracic aorta", "setting": "rat thoracic aorta (TA); [3]", "value": "3.0 ± 3.0", "unit": "%"}, {"measurement": "% Response, relaxation (R), rat Old W thoracic aorta", "setting": "rat thoracic aorta (TA); [3]", "value": "2.4 ± 2.4", "unit": "%"}, {"measurement": "% Response, contraction (C), rat Young SD thoracic aorta", "setting": "rat thoracic aorta (TA); [4]", "value": "12.5 ± 7.2", "unit": "%"}, {"measurement": "% Response, relaxation (R), rat Young SD thoracic aorta", "setting": "rat thoracic aorta (TA); [4]", "value": "8.3 ± 8.3", "unit": "%"}, {"measurement": "adverse / toxic effects in isolated human blood vessels", "setting": "[1]", "value": "no observable adverse effects"}, {"measurement": "adverse / toxic effects in isolated human blood vessels", "setting": "[1]; listed as Methylamine", "value": "no observable long-lasting inhibitory or toxic effects"}, {"measurement": "EC50", "setting": "[2]", "value": "200 to 300", "unit": "µM"}]}]}
